These results are taken from publication PMC4336329 (PLoS ONE, 2015).

The campaign covered roughly 310,000 compounds. About 2,200 (0.71%) showed an effect of 50% or more. Effects have a minus sign here. The list shows a part of the results.

In the test the target is human ether-à-go-go-related gene (hERG) potassium channel (human, UniProt Q12809). The test is described as follows: primary screen, population patch clamp on CHO cells stably expressing hERG.
human ether-à-go-go-related gene (hERG) potassium channel, sequence (Q12809 whole entry, looked up): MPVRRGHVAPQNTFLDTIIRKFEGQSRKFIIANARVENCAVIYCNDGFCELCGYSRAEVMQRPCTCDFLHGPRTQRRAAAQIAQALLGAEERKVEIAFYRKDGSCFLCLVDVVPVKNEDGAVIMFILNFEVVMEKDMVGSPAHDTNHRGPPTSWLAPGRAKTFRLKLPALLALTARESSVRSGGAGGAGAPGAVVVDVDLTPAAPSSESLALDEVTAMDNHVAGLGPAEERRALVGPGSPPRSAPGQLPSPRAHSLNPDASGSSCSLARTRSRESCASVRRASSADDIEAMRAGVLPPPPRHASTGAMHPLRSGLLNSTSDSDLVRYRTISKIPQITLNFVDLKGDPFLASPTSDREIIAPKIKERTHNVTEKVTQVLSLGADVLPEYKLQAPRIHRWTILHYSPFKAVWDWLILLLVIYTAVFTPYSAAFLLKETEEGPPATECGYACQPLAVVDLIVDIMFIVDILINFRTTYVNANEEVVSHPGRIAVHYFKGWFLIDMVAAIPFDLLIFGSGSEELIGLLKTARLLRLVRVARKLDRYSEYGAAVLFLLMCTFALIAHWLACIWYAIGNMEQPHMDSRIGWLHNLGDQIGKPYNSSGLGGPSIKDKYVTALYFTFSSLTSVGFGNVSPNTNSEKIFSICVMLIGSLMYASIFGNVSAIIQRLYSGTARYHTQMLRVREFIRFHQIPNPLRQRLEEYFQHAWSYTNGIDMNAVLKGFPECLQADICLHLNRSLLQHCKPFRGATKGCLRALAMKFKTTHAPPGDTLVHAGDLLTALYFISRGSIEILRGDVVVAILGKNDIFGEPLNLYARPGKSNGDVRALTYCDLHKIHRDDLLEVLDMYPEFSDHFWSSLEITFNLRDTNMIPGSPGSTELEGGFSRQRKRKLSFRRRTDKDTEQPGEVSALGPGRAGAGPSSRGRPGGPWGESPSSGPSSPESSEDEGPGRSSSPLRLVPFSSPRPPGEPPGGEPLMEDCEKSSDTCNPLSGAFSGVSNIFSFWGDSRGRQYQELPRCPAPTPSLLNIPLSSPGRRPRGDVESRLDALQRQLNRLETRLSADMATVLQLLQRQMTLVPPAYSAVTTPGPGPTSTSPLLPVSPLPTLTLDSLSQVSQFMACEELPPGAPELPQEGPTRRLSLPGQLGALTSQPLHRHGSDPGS
With `COc1ccc(/C=C/C(=O)Nc2cccnc2Cl)cc1`, the “hERG current change (%, negative = inhibition) at 1uM” value is recorded as 21.6%. Then `CC(=O)c1cccc(NC(=O)C2C3CCC(C3)C2C(=O)O)c1` (stereo not drawn), with 11.7%. The value for `NS(=O)(=O)c1ccc(CNC(=O)c2cc(-c3cccnc3)nc3ccc(Cl)cc23)cc1` was 12.5%; that for `O=C(Nc1ccc(F)cc1)c1cc2ccccc2o1` was 16.4%; that for `O=C(NNC(=S)Nc1ccc(OC(F)F)cc1)c1cc2c(s1)CCCC2` was 14.3%.

As to `CCc1nc2ccccc2c(C(=O)OCC(=O)Nc2ccc(S(=O)(=O)N3CCOCC3)cc2)c1C`, the “hERG current change (%, negative = inhibition) at 1uM” value was determined as 10.1%. Then `Cc1ccc(S(=O)(=O)NC(C(=O)OCC(=O)NC(=O)c2cccn2C)C(C)C)cc1` (stereo not drawn), with -10.8%. The value for `CC12CCC(C1)C(C)(C)C2NS(=O)(=O)c1ccc(F)cc1` (stereo not drawn) was 10.4%; that for `COc1ccc(N2C(=O)c3ccccc3NC23C(=O)N(C)c2ccccc23)cc1` (stereo not drawn) was -4.05%; that for `CCOc1ccc(-c2noc(CCC(=O)NC3CCCCC3)n2)cc1OC` was 11.7%. Then `NS(=O)(=O)c1ccc(CCNS(=O)(=O)Cc2ccc(Cl)cc2)cc1`, with 12%. As to `O=C(NCCN1CCOCC1)c1cccnc1SCc1ccccc1Cl`, the “hERG current change (%, negative = inhibition) at 1uM” value is given as 6.95%. As to `CS(=O)c1nc(-c2ccc(Br)cc2)cc(-c2ccccc2)c1C#N` (stereo not drawn), the “hERG current change (%, negative = inhibition) at 1uM” value is 8.96%. Then `CCOC(=O)c1c(NC(=O)C2CC2)sc2c1CC(C)(C)OC2`, with -1.65%.

On to `Cc1cccc(C(=O)NCCNC(=O)c2ccccn2)c1`, for which the “hERG current change (%, negative = inhibition) at 1uM” value turned out to be 8.51%. Take `O=C1N=C(N2CCCC2)CN1c1ccccc1`: the “hERG current change (%, negative = inhibition) at 1uM” value amounted to 13.8%.

In the case of `C/C=C(\NC(C)=O)c1ccccc1`, the “hERG current change (%, negative = inhibition) at 1uM” value is 13.5%.

For `CN1CCC(N(C)C(=O)c2ccc(Cl)c(S(=O)(=O)N3CCCCC3)c2)CC1`, the “hERG current change (%, negative = inhibition) at 1uM” value is recorded as -5.25%.

As to `O=C(CCCn1nnnc1CN1CCOCC1)N1CCC(c2ccc(F)cc2)C1` (stereo not drawn), the “hERG current change (%, negative = inhibition) at 1uM” value is -0.382%.

Regarding `Cn1c2ccc(F)cc2c2nc3ccccc3nc21`, the “hERG current change (%, negative = inhibition) at 1uM” value was -7.48%. For `COc1cc2c(cc1OC)-c1nc3ccccc3c(=O)n1C(C)(C)C2`, the “hERG current change (%, negative = inhibition) at 1uM” value is -1.56%. Consider `COc1cccc(NC(=O)CSc2nc(O)c(C)c(=O)n2-c2ccc(C)cc2)c1`, for which the “hERG current change (%, negative = inhibition) at 1uM” value is recorded as 21.4%. Then `O=C1C(Cl)=C(N2CCCC2)C(=O)N1c1ccc(F)cc1`, with 9.35%; and `CCN(CC(=O)Nc1cc(Cl)ccc1C)C(=O)CSCc1c(C)noc1C`, with 17%; and `CCOC(=O)c1cnn(-c2nc(-c3ccc(F)cc3)cs2)c1C(F)(F)F`, with -7.69%. The value for `O=C(NCCC1=CCCCC1)c1cnccn1` was 10.3%; that for `COc1ccc2nc(N3CCCC3)c(C#N)cc2c1` was 5.19%.

Take `Cc1coc2cc3oc(=O)c(CCC(=O)NCCCN4CCOCC4)c(C)c3cc12`: the “hERG current change (%, negative = inhibition) at 1uM” value worked out at 11%. The value for `OC(CN1CCN(c2ccccn2)CC1)Cn1c2ccccc2c2ccccc21` (stereo not drawn) was -15%. On to `CCn1c(SCc2ccccc2)nnc1C1CCCCC1`, for which the “hERG current change (%, negative = inhibition) at 1uM” value is recorded as 2.55%. Then `N#Cc1c(-c2ccccc2)nc(SCC(=O)N(c2ccccc2)c2ccccc2)[nH]c1=O`, with 8.6%.

With `O=C(CN1CCOCC1)NCc1ccccc1Cl`, the “hERG current change (%, negative = inhibition) at 1uM” value stood at 18.6%. Then `COc1ccc(C)cc1N(CC(=O)N1CCc2ccccc2C1)S(C)(=O)=O`, with 7.35%. The value for `Cc1ccc(NC(=O)CSc2nc3ccccc3c(=O)n2CCCC(=O)NCCCN2CCOCC2)cc1C` was -29.3%; that for `O=C(O)C(=O)O.c1ccc(CNC2=NCCCC2)cc1` was 10.5%. The value for `Cc1nc(-c2ccc(F)cc2)c(CC(=O)N2CCN(S(=O)(=O)c3ccccc3Br)CC2)s1` was -3.1%; that for `Cc1c(C(=O)N2CCN(c3ccc(F)cc3)CC2)sc2nc(-c3ccccc3)cn12` was -2.42%; that for `CC(Oc1ccc(Cl)cc1Cl)C(=O)OCn1nnc2ccccc2c1=O` (stereo not drawn) was 6.26%. In the case of `O=C1NC2(CCCCCC2)N=C1c1ccc(Br)cc1`, the “hERG current change (%, negative = inhibition) at 1uM” value was 12.9%. Then `Cc1cccc(N2Cc3ccccc3C2=NC(=O)c2ccc(Cl)nc2)c1`, with 1.49%. Then `CC(=O)N=Cc1c(C)c(C#N)c(=O)n(C)c1O`, with 12.6%; and `CCOn1c(=O)c(-c2ccc(F)cc2)[n+]([O-])c2ccccc21`, with 10.9%. As for `CCc1c(C2(O)CCCCC2)[nH]c2cc(C(F)(F)F)ccc12`, the “hERG current change (%, negative = inhibition) at 1uM” value was found to be 8.66%. The value for `CC1CCC2(CC1)NC(=O)N(NC(=O)c1cc3ccccc3o1)C2=O` (stereo not drawn) was 9.59%; that for `CC(C)[C@H](NS(=O)(=O)c1ccccc1)C(=O)OCC(=O)Nc1ccccc1Sc1ccccc1` was 6.4%. Then `Cc1ccc2nc(NC(=O)C3CCCN(S(=O)(=O)c4cccc5nonc45)C3)sc2c1` (stereo not drawn), with 11%; and `O=C(O)Cc1ccc(NC(=O)C2CC=CCC2C(=O)O)cc1` (stereo not drawn), with 23.9%; and `O=C(Nc1ccc2c(c1)OCCO2)C1CCCN1S(=O)(=O)c1ccc(Cl)cc1` (stereo not drawn), with 11%. Then `OC(c1ccccn1)c1c[nH]c2ccccc12` (stereo not drawn), with 14.2%; and `OC1(C#Cc2c(-c3ccsc3)oc3ccc(N4CCOCC4)cc23)CCCCC1`, with 12.3%.

Consider `Cc1ccccc1NC(=O)N1CCCC(c2nc(-c3ccc(C(C)C)cc3)no2)C1` (stereo not drawn), for which the “hERG current change (%, negative = inhibition) at 1uM” value is 6.67%.

Take `Cc1nnc(-c2ccc(Cl)cc2)nc1NCCN(C)C`: the “hERG current change (%, negative = inhibition) at 1uM” value is recorded as -1.19%. Then `CCCCn1c(=O)[nH]c(=O)c2c1nc(-c1ccc(OCCC)c(OCC)c1)n2C`, with 10%; and `CCCCCc1nc(-c2nonc2N)no1`, with 17.3%; and `COc1cc(OC)c(N(C)S(=O)(=O)c2cccc(C(=O)OCc3c(C)noc3C)c2)cc1Cl`, with 11.8%.

Regarding `Cc1ccc(SCc2nc(-c3ccccn3)no2)cc1`, the “hERG current change (%, negative = inhibition) at 1uM” value is reported as -2.03%. Take `CN(CC(=O)Nc1ccc(F)cc1)C(=O)c1cccc(NS(=O)(=O)c2ccccc2)c1`: the “hERG current change (%, negative = inhibition) at 1uM” value is on record as 0.929%.
